# The supplement of paper PMC8728848
# This is one part of the list.
# Assays:
# Test in all cases: glycan array binding signal (z-score within array); higher = stronger binding
# Settings in all cases: glycan notation: IUPAC condensed, linker removed
# [1] = biological target: Gal(b1-4)GalNAc(b1-3)[Fuc(a1-2)]Gal(b1-4)GlcNAc
# Procedure, shortened: (§1)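 Glycan array data came from 3228 arrays in the Consortium for Functional Glycomics database, and only arrays with an available protein sequence were kept. Glycan names were put into IUPAC-condensed notation, and columns mapping to the same glycan were averaged. The binding signal is a within-array Z-score, averaged across arrays of one protein sequence run at different concentrations or buffers and across linkers. A negative Z-score can be read as non-binding.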
# Gal(b1-4)Glc = biological target: Gal(b1-4)Glc
# Procedure, shortened: as §1
# Gal(b1-4)Glc6S = biological target: Gal(b1-4)Glc6S
# Procedure, shortened: as §1
# Gal(b1-4)GlcNAc = biological target: Gal(b1-4)GlcNAc
# Procedure, shortened: as §1
# [2] = biological target: Gal(b1-4)GlcNAc(a1-6)Gal(b1-4)GlcNAc
# Procedure, shortened: as §1
# Gal(b1-4)GlcNAc(b1-2)Man = biological target: Gal(b1-4)GlcNAc(b1-2)Man
# Procedure, shortened: as §1
# [3] = biological target: Gal(b1-4)GlcNAc(b1-2)Man(a1-3)Man(b1-4)GlcNAc(b1-4)GlcNAc
# Procedure, shortened: as §1
# [4] = biological target: Gal(b1-4)GlcNAc(b1-2)Man(a1-3)[Gal(b1-4)GlcNAc(b1-2)Man(a1-6)]Man(b1-4)GlcNAc(b1-4)GlcNAc
# Procedure, shortened: as §1
# [5] = biological target: Gal(b1-4)GlcNAc(b1-2)Man(a1-3)[Gal(b1-4)GlcNAc(b1-2)Man(a1-6)]Man(b1-4)GlcNAc(b1-4)[Fuc(a1-6)]GlcNAc
# Procedure, shortened: as §1
# [6] = biological target: Gal(b1-4)GlcNAc(b1-2)Man(a1-3)[Gal(b1-4)GlcNAc(b1-2)Man(a1-6)][Gal(b1-4)GlcNAc(b1-4)]Man(b1-4)GlcNAc(b1-4)[Fuc(a1-6)]GlcNAc
# Procedure, shortened: as §1
# [7] = biological target: Gal(b1-4)GlcNAc(b1-2)Man(a1-3)[Gal(b1-4)GlcNAc(b1-2)Man(a1-6)][GlcNAc(b1-4)]Man(b1-4)GlcNAc(b1-4)[Fuc(a1-6)]GlcNAc
# Procedure, shortened: as §1
# [8] = biological target: Gal(b1-4)GlcNAc(b1-2)Man(a1-3)[GlcNAc(b1-2)Man(a1-6)]Man(b1-4)GlcNAc(b1-4)GlcNAc
# Procedure, shortened: as §1
# [9] = biological target: Gal(b1-4)GlcNAc(b1-2)Man(a1-3)[GlcNAc(b1-4)][Gal(b1-4)GlcNAc(b1-2)Man(a1-6)]Man(b1-4)GlcNAc(b1-4)GlcNAc
# Procedure, shortened: as §1
# [10] = biological target: Gal(b1-4)GlcNAc(b1-2)Man(a1-3)[Man(a1-6)]Man(b1-4)GlcNAc(b1-4)GlcNAc
# Procedure, shortened: as §1
# [11] = biological target: Gal(b1-4)GlcNAc(b1-2)Man(a1-6)Man(b1-4)GlcNAc(b1-4)GlcNAc
# Procedure, shortened: as §1
# [12] = biological target: Gal(b1-4)GlcNAc(b1-2)Man(a1-6)[GlcNAc(b1-2)Man(a1-3)]Man(b1-4)GlcNAc(b1-4)GlcNAc
# Procedure, shortened: as §1
# [13] = biological target: Gal(b1-4)GlcNAc(b1-2)Man(a1-6)[Man(a1-3)]Man(b1-4)GlcNAc(b1-4)GlcNAc
# Procedure, shortened: as §1
# [14] = biological target: Gal(b1-4)GlcNAc(b1-2)[Gal(b1-4)GlcNAc(b1-4)]Man(a1-3)[Gal(b1-4)GlcNAc(b1-2)Man(a1-6)]Man(b1-4)GlcNAc(b1-4)GlcNAc
# Procedure, shortened: as §1
# [15] = biological target: Gal(b1-4)GlcNAc(b1-2)[Gal(b1-4)GlcNAc(b1-4)]Man(a1-3)[Gal(b1-4)GlcNAc(b1-2)[Gal(b1-4)GlcNAc(b1-6)]Man(a1-6)]Man(b1-4)GlcNAc(b1-4)GlcNAc
# Procedure, shortened: as §1
# [16] = biological target: Gal(b1-4)GlcNAc(b1-2)[Gal(b1-4)GlcNAc(b1-4)]Man(a1-3)[GlcNAc(b1-4)][Gal(b1-4)GlcNAc(b1-2)Man(a1-6)]Man(b1-4)GlcNAc(b1-4)GlcNAc
# Procedure, shortened: as §1
# [17] = biological target: Gal(b1-4)GlcNAc(b1-2)[Gal(b1-4)GlcNAc(b1-4)]Man(a1-3)[GlcNAc(b1-4)][Gal(b1-4)GlcNAc(b1-2)[Gal(b1-4)GlcNAc(b1-6)]Man(a1-6)]Man(b1-4)GlcNAc(b1-4)GlcNAc
# Procedure, shortened: as §1
# [18] = biological target: Gal(b1-4)GlcNAc(b1-2)[Gal(b1-4)GlcNAc(b1-6)]Man(a1-6)[Gal(b1-4)GlcNAc(b1-2)Man(a1-3)]Man(b1-4)GlcNAc(b1-4)GlcNAc
# Procedure, shortened: as §1
# [19] = biological target: Gal(b1-4)GlcNAc(b1-2)[Gal(b1-4)GlcNAc(b1-6)]Man(a1-6)[Gal(b1-4)GlcNAc(b1-2)Man(a1-3)]Man(b1-4)GlcNAc(b1-4)[Fuc(a1-6)]GlcNAc
# Procedure, shortened: as §1
# [20] = biological target: Gal(b1-4)GlcNAc(b1-2)[Gal(b1-4)GlcNAc(b1-6)]Man(a1-6)[GlcNAc(b1-4)][Gal(b1-4)GlcNAc(b1-2)Man(a1-3)]Man(b1-4)GlcNAc(b1-4)GlcNAc
# Procedure, shortened: as §1
# [21] = biological target: Gal(b1-4)GlcNAc(b1-2)[Gal(b1-4)GlcNAc(b1-6)]Man(a1-6)[GlcNAc(b1-4)][Gal(b1-4)GlcNAc(b1-2)[Gal(b1-4)GlcNAc(b1-4)]Man(a1-3)]Man(b1-4)GlcNAc(b1-4)[Fuc(a1-6)]GlcNAc
# Procedure, shortened: as §1
# [22] = biological target: Gal(b1-4)GlcNAc(b1-3)Gal(b1-3)GalNAc
# Procedure, shortened: as §1
# [23] = biological target: Gal(b1-4)GlcNAc(b1-3)Gal(b1-3)GlcNAc
# Procedure, shortened: as §1
# [24] = biological target: Gal(b1-4)GlcNAc(b1-3)Gal(b1-4)Glc
# Procedure, shortened: as §1
# [25] = biological target: Gal(b1-4)GlcNAc(b1-3)Gal(b1-4)GlcNAc
# Procedure, shortened: as §1
# [26] = biological target: Gal(b1-4)GlcNAc(b1-3)Gal(b1-4)GlcNAc(b1-2)Man(a1-3)[Gal(b1-4)GlcNAc(b1-3)Gal(b1-4)GlcNAc(b1-2)Man(a1-6)]Man(b1-4)GlcNAc(b1-4)GlcNAc
# Procedure, shortened: as §1
# [27] = biological target: Gal(b1-4)GlcNAc(b1-3)Gal(b1-4)GlcNAc(b1-2)Man(a1-3)[Gal(b1-4)GlcNAc(b1-3)Gal(b1-4)GlcNAc(b1-2)Man(a1-6)]Man(b1-4)GlcNAc(b1-4)[Fuc(a1-6)]GlcNAc
# Procedure, shortened: as §1
# [28] = biological target: Gal(b1-4)GlcNAc(b1-3)Gal(b1-4)GlcNAc(b1-2)[Gal(b1-4)GlcNAc(b1-3)Gal(b1-4)GlcNAc(b1-6)]Man(a1-6)[Gal(b1-4)GlcNAc(b1-3)Gal(b1-4)GlcNAc(b1-2)Man(a1-3)]Man(b1-4)GlcNAc(b1-4)GlcNAc
# Procedure, shortened: as §1
# [29] = biological target: Gal(b1-4)GlcNAc(b1-3)Gal(b1-4)GlcNAc(b1-2)[Gal(b1-4)GlcNAc(b1-3)Gal(b1-4)GlcNAc(b1-6)]Man(a1-6)[Gal(b1-4)GlcNAc(b1-3)Gal(b1-4)GlcNAc(b1-2)Man(a1-3)]Man(b1-4)GlcNAc(b1-4)[Fuc(a1-6)]GlcNAc
# Procedure, shortened: as §1
# [30] = biological target: Gal(b1-4)GlcNAc(b1-3)Gal(b1-4)GlcNAc(b1-3)Gal(b1-4)GlcNAc
# Procedure, shortened: as §1
# [31] = biological target: Gal(b1-4)GlcNAc(b1-3)Gal(b1-4)GlcNAc(b1-3)Gal(b1-4)GlcNAc(b1-2)Man(a1-3)[Gal(b1-4)GlcNAc(b1-3)Gal(b1-4)GlcNAc(b1-3)Gal(b1-4)GlcNAc(b1-2)Man(a1-6)]Man(b1-4)GlcNAc(b1-4)GlcNAc
# Procedure, shortened: as §1
# [32] = biological target: Gal(b1-4)GlcNAc(b1-3)Gal(b1-4)GlcNAc(b1-3)Gal(b1-4)GlcNAc(b1-2)Man(a1-3)[Gal(b1-4)GlcNAc(b1-3)Gal(b1-4)GlcNAc(b1-3)Gal(b1-4)GlcNAc(b1-2)Man(a1-6)]Man(b1-4)GlcNAc(b1-4)[Fuc(a1-6)]GlcNAc
# Procedure, shortened: as §1
# [33] = biological target: Gal(b1-4)GlcNAc(b1-3)Gal(b1-4)GlcNAc(b1-3)Gal(b1-4)GlcNAc(b1-2)[Gal(b1-4)GlcNAc(b1-3)Gal(b1-4)GlcNAc(b1-3)Gal(b1-4)GlcNAc(b1-6)]Man(a1-6)[Gal(b1-4)GlcNAc(b1-3)Gal(b1-4)GlcNAc(b1-3)Gal(b1-4)GlcNAc(b1-2)Man(a1-3)]Man(b1-4)GlcNAc(b1-4)[Fuc(a1-6)]GlcNAc
# Procedure, shortened: as §1
binder,measurement,setting,value
"DC-Sign (Homo sapiens), Q9NNX6 (protein) MSDSKEPRLQQLGLLEEEQLRGLGFRQTRGYKSLAGCLGHGPLVLQLLSFTLLAGLLVQVSKVPSSISQEQSRQDAIYQNLTQLKAAVGELSEKSKLQEIYQELTQLKAAVGELPEKSKLQEIYQELTRLKAAVGELPEKSKLQEIYQELTWLKAAVGELPEKSKMQEIYQELTRLKAAVGELPEKSKQQEIYQELTRLKAAVGELPEKSKQQEIYQELTRLKAAVGELPEKSKQQEIYQELTQLKAAVERLCHPCPWEWTFFQGNCYFMSNSQRNWHDSITACKEVGAQLVVIKSAEEQNFLQLQSSRSNRFTWMGLSDLNQEGTWQWVDGSPLLPSFKQYWNRGEPNNVGEEDCAEFSGNGWNDDKCNLAKFWICKKSAASCSRDEEQFLSPAPATPNPPPA",glycan array binding signal (z-score),[1],-0.159
same,glycan array binding signal (z-score),Gal(b1-4)Glc,-0.186
same,glycan array binding signal (z-score),Gal(b1-4)Glc6S,-0.188
same,glycan array binding signal (z-score),Gal(b1-4)GlcNAc,-0.185
same,glycan array binding signal (z-score),[2],-0.166
same,glycan array binding signal (z-score),Gal(b1-4)GlcNAc(b1-2)Man,-0.122
same,glycan array binding signal (z-score),[3],-0.119
same,glycan array binding signal (z-score),[4],-0.096
same,glycan array binding signal (z-score),[5],-0.195
same,glycan array binding signal (z-score),[6],-0.122
same,glycan array binding signal (z-score),[7],-0.086
same,glycan array binding signal (z-score),[8],-0.13
same,glycan array binding signal (z-score),[9],-0.162
same,glycan array binding signal (z-score),[10],-0.156
same,glycan array binding signal (z-score),[11],-0.156
same,glycan array binding signal (z-score),[12],-0.159
same,glycan array binding signal (z-score),[13],-0.115
same,glycan array binding signal (z-score),[14],-0.173
same,glycan array binding signal (z-score),[15],-0.2
same,glycan array binding signal (z-score),[16],-0.201
same,glycan array binding signal (z-score),[17],-0.211
same,glycan array binding signal (z-score),[18],-0.2
same,glycan array binding signal (z-score),[19],-0.163
same,glycan array binding signal (z-score),[20],-0.187
same,glycan array binding signal (z-score),[21],-0.207
same,glycan array binding signal (z-score),[22],-0.181
same,glycan array binding signal (z-score),[23],-0.195
same,glycan array binding signal (z-score),[24],-0.169
same,glycan array binding signal (z-score),[25],-0.184
same,glycan array binding signal (z-score),[26],-0.106
same,glycan array binding signal (z-score),[27],-0.133
same,glycan array binding signal (z-score),[28],0.026
same,glycan array binding signal (z-score),[29],-0.107
same,glycan array binding signal (z-score),[30],-0.187
same,glycan array binding signal (z-score),[31],-0.091
same,glycan array binding signal (z-score),[32],-0.137
same,glycan array binding signal (z-score),[33],-0.094
